Measured values as given in PubChem BioAssay AID504332 (National Center for Advancing Translational Sciences (NCATS), 2011).
Where “and” joins values, the source holds several entries; their conditions need not be identical. Equal values may be shown once. The campaign covered roughly 350,000 compounds. About 31,000 (8.9%) were called active. The shares of active, inactive and inconclusive entries below differ from those in the screen. The call rests on the fitted dose curve; in most records, active means well fitted inhibition curve with a large enough effect; inconclusive means small, poorly fitted or top-dose-only effect; inactive means no such curve, though single readings can be large or run the other way. Where the call is inconclusive, the potency comes from a doubtful curve fit.

Target: Histone-lysine N-methyltransferase EHMT2 (Homo sapiens) (UniProt Q96KQ7)
Test: qHTS Assay for Inhibitors of Histone Lysine Methyltransferase G9a; further: nearly all actives have a fitted effect of over 75% in size
Conditions: G9a H3K9 monomethylation, AlphaScreen, 2 h; activity, negative = inhibition: at 59 µM (top of the series) unless noted
In short: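 G9a (20 nM) was preincubated 15 min with compound, then reacted 2 h at room temperature with 500 nM biotin-H3K9 peptide and 20 µM SAM. Monomethyl-H3K9 detected by AlphaScreen using anti-H3K9me1 antibody.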
On the % scale 0 is the no-effect control and ±100 the full control effect; potency means the concentration at half of the fitted maximal effect; tags describe the fitted curve by direction and shape.

Sequence of UniProt Q96KQ7 (Q96KQ7 whole entry, looked up): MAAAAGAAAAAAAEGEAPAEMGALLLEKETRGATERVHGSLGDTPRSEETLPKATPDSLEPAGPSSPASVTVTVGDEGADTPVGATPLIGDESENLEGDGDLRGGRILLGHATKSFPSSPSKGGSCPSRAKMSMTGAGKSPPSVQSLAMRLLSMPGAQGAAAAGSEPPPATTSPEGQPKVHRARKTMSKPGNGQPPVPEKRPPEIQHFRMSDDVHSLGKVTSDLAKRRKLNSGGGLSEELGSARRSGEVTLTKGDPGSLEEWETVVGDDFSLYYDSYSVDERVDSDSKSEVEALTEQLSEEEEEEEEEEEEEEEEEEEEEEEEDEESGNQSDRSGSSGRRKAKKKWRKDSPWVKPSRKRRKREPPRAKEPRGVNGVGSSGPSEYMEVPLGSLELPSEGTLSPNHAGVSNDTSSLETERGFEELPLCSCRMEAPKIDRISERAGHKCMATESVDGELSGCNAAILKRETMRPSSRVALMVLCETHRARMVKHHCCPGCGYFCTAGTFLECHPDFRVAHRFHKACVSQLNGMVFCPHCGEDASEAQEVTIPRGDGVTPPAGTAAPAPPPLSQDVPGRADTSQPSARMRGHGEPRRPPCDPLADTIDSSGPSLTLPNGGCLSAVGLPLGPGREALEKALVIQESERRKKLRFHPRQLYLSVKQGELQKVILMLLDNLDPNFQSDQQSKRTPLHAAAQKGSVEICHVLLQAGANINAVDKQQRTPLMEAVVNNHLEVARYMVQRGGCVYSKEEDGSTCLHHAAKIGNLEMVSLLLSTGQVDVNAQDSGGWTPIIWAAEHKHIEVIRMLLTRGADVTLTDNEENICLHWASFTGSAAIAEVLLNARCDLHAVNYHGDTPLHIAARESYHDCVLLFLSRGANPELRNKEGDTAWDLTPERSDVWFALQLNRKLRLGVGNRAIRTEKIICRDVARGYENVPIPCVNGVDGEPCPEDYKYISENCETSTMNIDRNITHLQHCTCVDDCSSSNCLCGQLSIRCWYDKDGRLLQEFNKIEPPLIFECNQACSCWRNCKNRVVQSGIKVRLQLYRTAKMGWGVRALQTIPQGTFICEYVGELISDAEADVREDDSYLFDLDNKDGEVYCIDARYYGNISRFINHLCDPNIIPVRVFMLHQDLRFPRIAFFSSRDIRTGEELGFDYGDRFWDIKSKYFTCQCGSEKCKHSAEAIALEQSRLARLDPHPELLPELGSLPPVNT

Row | Compound | Potency | activity, negative = inhibition
1 | COc1cc(-c2nn3c(-c4ccccc4)nnc3s2)cc(OC)c1OC | active: 44.7 µM | –
2 | Cc1cc(Cl)ccc1NC(=O)CN1C(=O)C(=O)c2ccccc21 | inactive | –
3 | CN1CCC(N(C)C(=O)COc2ccccc2-c2ccccc2)CC1 | inactive | –
4 | C=CCN1CCc2nc(N)sc2CC1 | active: 44.7 µM and active: 15.8 µM | –
5 | Cc1cccc(N2CCN(c3ccc(C(=O)O)cc3NC(=O)c3ccccc3F)CC2C)c1 (stereo not given) | inconclusive: 35.5 µM [inhibitor, partial curve, poor fit] | –
6 | O=C(O)c1cccc(Nc2nc(-c3cccnc3)nc3ccccc23)c1 | inconclusive: 39.8 µM [inhibitor, single point] | –
7 | O=C(COc1ccccc1)N(Cc1cc2ccccc2[nH]c1=O)CC1CCCO1 (stereo not given) | inconclusive: 89.1 µM [inhibitor, single point] | –
8 | CCn1c(C(=O)O)c(CC(=O)NC2CCCCCC2)c2ccccc21 | inconclusive: 39.8 µM [inhibitor, partial curve, poor fit] | –
9 | COC(=O)C1=C(c2ccccc2)c2ccccc2S(=O)(=O)N1CC(=O)Nc1ccccc1C(F)(F)F | inactive | –
10 | O=C(Nc1nc(-c2ccco2)c(-c2ccco2)s1)c1c(F)cccc1Cl | inconclusive: 6.31 µM [inhibitor, single point] | –
11 | COc1ccc(C2/C(=C(/O)c3ccccc3)C(=O)C(=O)N2c2ccccn2)cc1 (stereo not given) | inconclusive: 89.1 µM [inhibitor, single point] | –
12 | CCN(Cc1cccs1)C(=O)c1cccc(S(=O)(=O)N2CCN(C)CC2)c1 | inconclusive: 2.51 µM [inhibitor, partial curve, poor fit] | –
13 | CCN(CC)c1ccc(C(=O)NCc2ccc3c(c2)CCN3C(C)=O)cc1 | inactive | –
14 | CCNc1nc(NCC)n2c(SCC(=O)Nc3ccccc3)nnc2n1 | inactive | –
15 | CC(C)n1ncc2c(C(=O)Nc3ccc(S(N)(=O)=O)cc3)cc(C3CC3)nc21 | inconclusive: 6.31 µM [inhibitor, single point] | –
16 | Cc1cccc(-c2nsc(SCC(=O)NCC3CCCO3)n2)c1 (stereo not given) | active: 17.8 µM | –
17 | CC(C(=O)Nc1ccccc1C(F)(F)F)n1nc(-c2ccccc2)c2c(c1=O)CCCC2 (stereo not given) | inactive | –
18 | Cc1cc(C)c(C(=O)Nc2ccc(S(=O)(=O)Nc3onc(C)c3C)cc2)c(C)c1 | inconclusive: 39.8 µM [inhibitor, single point] | –
19 | COc1ccc(OC)c(NC(=O)CC2SC(=Nc3ccc(F)cc3)N(CCC3=CCCCC3)C2=O)c1 (stereo not given) | active: 50.1 µM | –
20 | Cc1ccc2cc(C(c3nnnn3C3CCCC3)N3CCN(c4ccccc4)CC3)c(=O)[nH]c2c1 (stereo not given) | inconclusive: 2.82 µM [inhibitor, partial curve, poor fit] | –
21 | CCOC(=O)C(Cc1c[nH]c2ccccc12)NC(=O)COc1ccc(Cl)cc1 (stereo not given) | inconclusive: 0.631 µM [inhibitor, full curve, poor fit] | –
22 | COCCN(CCOC)C(=O)c1cc2c(=O)n3ccccc3nc2n1C | inconclusive: 6.31 µM [inhibitor, partial curve, poor fit] | –

Row | Compound | Potency | activity, negative = inhibition
23 | Cc1ccc(NC(=O)c2ccc(OC(=O)COc3cccc(Cl)c3)cc2)cc1 | inactive | –
24 | Cc1c(Cl)cccc1NC(=O)CN1C(=O)CCn2nc(-c3cccn3C)cc21 | inconclusive: 31.6 µM [inhibitor, single point] | –
25 | Clc1ccc(OCc2nn3c(-c4ccco4)nnc3s2)cc1 | inconclusive: 50.1 µM [inhibitor, single point] | –
26 | CCN(c1ccccc1)S(=O)(=O)c1ccc(Cl)c(NC(=O)COC(=O)c2cc(O)c3ccccc3c2O)c1 | inconclusive: 3.98 µM [inhibitor, partial curve, poor fit] | –
27 | O=C(NCc1ccc2c(c1)CCN2C(=O)c1ccncc1)c1ccc(Cl)cc1 | inactive | –
28 | COC(=O)c1c(NC(=O)CC2SC(N)=NC2=O)sc2c1CCC(C)C2 (stereo not given) | inconclusive: 25.1 µM [inhibitor, single point] | –
29 | CN1C(=O)/C(=C2/C=Cc3ccccc3N2CCCS(=O)(=O)O)SC1=S | – | inconclusive: -106% [inhibitor]
30 | COc1ccc(C2CC(=O)c3cnc(N4CCN(Cc5ccccc5)CC4)nc3C2)cc1 (stereo not given) | inconclusive: 12.6 µM [inhibitor, partial curve, poor fit] | –
31 | CN(C)c1ccc(C(c2nnnn2CCOC(=O)Nc2ccc(Cl)cc2)N2CCOCC2)cc1 (stereo not given) | inconclusive: 2 µM [inhibitor, partial curve, poor fit] | –
32 | Cc1ccc(-n2c3c(cc(C(=O)NCc4ccco4)c2=O)C(=O)CC(C)(C)C3)cc1 | inconclusive: 50.1 µM [inhibitor, partial curve, poor fit] | –
33 | CCOC(=O)N1CCN(S(=O)(=O)c2ccc(C(=O)N(CCCN(C)C)c3nc4ccc(OC)cc4s3)cc2)CC1 | inconclusive: 89.1 µM [inhibitor, single point] | –
34 | Cc1ccccc1NC(=O)Cn1c([N+](=O)[O-])cnc1C | inconclusive: 7.08 µM [inhibitor, single point] | –
35 | O=C(CSc1nc(-c2ccccc2)cn1-c1ccccc1)Nc1ccccc1 | inconclusive: 11.2 µM [inhibitor, partial curve] | –
36 | COc1cccc(C(=O)NC2=NC(c3ccc(N(C)C)cc3)CC(=O)N2)c1 (stereo not given) | inconclusive: 17.8 µM [inhibitor, partial curve, poor fit] | –
37 | Cc1[nH]c2ccccc2c1CCN(Cc1cccnc1)C(=S)Nc1ccc(F)cc1 | inconclusive: 79.4 µM [inhibitor, single point] | –
38 | COc1cc(-c2nc3ccc(C)cn3c2Nc2ccc(Cl)cc2)ccc1O | inconclusive: 10 µM [inhibitor, partial curve] | –
39 | C(=C\c1ccccc1)/CSc1ccccn1 | inactive | –
40 | CCn1c(NCc2cccc(Cl)c2)nc2ccccc21 | inactive | –
41 | O=C(COC(=O)CCCSc1nc2ccccc2[nH]1)Nc1ccc(Oc2ccccc2)cc1 | inconclusive: 44.7 µM [inhibitor, partial curve] | –
42 | COc1ccccc1N1CCN(S(=O)(=O)CCNC(=O)CC2CCCCC2)CC1 | inconclusive: 7.94 µM [inhibitor, partial curve, poor fit] | –
43 | O=C(O)c1ccc(CSc2nc3ccccc3[nH]2)cc1 | inactive | –
44 | O=C(NCc1cccnc1)c1cc(S(=O)(=O)N2CCCC2)c(Cl)cc1Cl | inconclusive: 89.1 µM [inhibitor, single point] | –

Row | Compound | Potency | activity, negative = inhibition
45 | Cc1ccccc1OCc1nc(-c2ccc(Br)o2)no1 | active: 79.4 µM | –
46 | Nn1cnc2c([nH]c3ccccc32)c1=O | inactive | –
47 | CCN1C(=S)SC(=O)C1=C1C=C(C)N(Cc2ccco2)C(C)=C1 | inconclusive: 39.8 µM [inhibitor, single point] | –
48 | O=C(CC1C(=O)NCCN1Cc1cccc(Oc2ccccc2)c1)NCCc1ccccn1 (stereo not given) | active: 22.4 µM | –
49 | Cc1ccc(Cn2c(C(=O)O)c(CNCCc3ccco3)c3ccc(C)cc32)cc1 | inconclusive: 11.2 µM [inhibitor, partial curve, poor fit] | –
50 | O=S(=O)(c1ccc(-c2csc(Nc3ccc(F)cc3)n2)cc1)N1CCCC1 | inconclusive: 35.5 µM [inhibitor, single point] | –
51 | COCCCNC(=O)C1CCN(c2cc(C)nc3c(-c4ccc(OC)c(OC)c4)c(C)nn23)CC1 | inactive | –
52 | O=C1CC(Sc2nnc(-c3ccccc3)o2)C(=O)N1c1ccccc1 (stereo not given) | inconclusive: 3.16 µM [inhibitor, single point] | –
53 | CN1C(=O)C[C@@H](C(=O)N[C@@H](Cc2cnc[nH]2)C(=O)N2CCC[C@H]2C(N)=O)NC1=O | – | inactive: 0.409% [at 12.7 µM]
54 | Cn1c(SCC(=O)N2CC(=O)Nc3ccccc32)nnc1C(F)(F)F | inconclusive: 89.1 µM [inhibitor, partial curve, poor fit] | –
55 | Cc1cc(=O)[nH]c(SCC(=O)Nc2ncc(S(=O)(=O)c3ccc([N+](=O)[O-])cc3)s2)n1 | active: 44.7 µM | –
56 | O=C(OCC(=O)N1CCCCCC1)c1ccc(F)cc1F | inconclusive: 89.1 µM [inhibitor, partial curve, poor fit] | –
57 | O=S(=O)(c1ccc(Br)cc1)c1nnn2c1nc(NCc1cccs1)c1sccc12 | inconclusive: 35.5 µM [inhibitor, partial curve, poor fit] | –
58 | Cc1ccc(S(=O)(=O)Cn2nnnc2C(C(C)C)N2CCN(c3nc4ccccc4s3)CC2)cc1 (stereo not given) | inconclusive: 31.6 µM [inhibitor, single point] | –
59 | Cc1cnc(CNc2ncnc3ccc(-c4ccoc4)cc23)cn1 | – | inactive: -27.8% [at 0.501 µM]
60 | Cc1[nH]c2ccccc2c1C(C[N+](=O)[O-])c1cccc(O)c1 (stereo not given) | inconclusive: 44.7 µM [inhibitor, partial curve] | –
61 | O=C(Nc1ccc(N=Nc2ccccc2)c(NC(=O)C2CCCO2)c1)C1CCCO1 (stereo not given) | inconclusive: 35.5 µM [inhibitor, single point] | –
62 | COc1ccc(-c2cc3c(=O)n(CC(=O)NCCCN4CCC(N5CCCCC5)CC4)ncn3n2)cc1 | inconclusive: 39.8 µM [inhibitor, partial curve, poor fit] | –
63 | Nc1ccc(N=Nc2ccccc2)c2cccnc12 | active: 12.6 µM | –
64 | COc1cccc(C2=CC(c3ccc(N(C)C)cc3)n3nnnc3N2)c1 (stereo not given) | inconclusive: 50.1 µM [inhibitor, partial curve, poor fit] | –
65 | Cc1ccc(S(=O)(=O)NCc2ccc(C(=O)N3CCN(c4ccc([N+](=O)[O-])cc4)CC3)cc2)cc1 | inconclusive: 39.8 µM [inhibitor, single point] | –
